From PubChem BioAssay AID1347071 (National Center for Advancing Translational Sciences (NCATS), 2019)
In all, about 410,000 compounds went through this assay and about 260 (0.063%) were called active. Inconclusive results, whose numbers are uncertain, are shown with a selection of clear calls. The call rests on the fitted dose curve; in most records, active means well fitted activation curve with a large enough effect; inconclusive means small, poorly fitted or top-dose-only effect; inactive means no such curve, though single readings can be large or run the other way. Potencies of inconclusive entries are left out as doubtful fits.

Assay: qHTS for compounds that reverse cellular toxicity of Amyloid beta (A-beta) peptide in yeast: Primary Screen; further: nearly all actives have a fitted effect of over 55% in size
Details: yeast expressing A-beta42, growth rescue, OD600, 48 h; growth rescue: at 46.1 µM (top of the series), 0% DMSO, 100% iron-clioquinol control
Method in brief: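 Growth rescue measured by 600 nm absorbance after 48 h yeast culture at 30 C with compound. Values normalized between DMSO and an equimolar ferric chloride plus clioquinol control.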
Potency means the concentration at half of the fitted maximal effect; tags describe the fitted curve by direction and shape.

Row | SMILES | growth rescue | Potency
1 | CCCCCSc1nnc2c(n1)OC(c1ccc(C)s1)N(C(C)=O)c1ccccc1-2 (centres undefined) | inactive: 1.71% | 
2 | Cc1ccc(S(=O)(=O)NCC(=O)NNC(=O)c2ccccc2Cl)cc1C | inactive: 1.22% | 
3 | CCn1c(=NC(=O)CSC(C)=O)sc2cc(F)ccc21 |  | inconclusive [activator, partial curve, poor fit]
4 | CCC(C)NC(=O)C(Cc1ccccc1)NS(=O)(=O)c1cccc2nsnc12 (centres undefined) | inactive: 16.1% | 
5 | Cc1c(C(=O)N2CCCCC2)c(S(=O)(=O)N2CCN(c3ccccc3F)CC2)c(C)n1C |  | inconclusive [activator, single point]
6 | COc1cc(OC)cc(C(=O)NCCCCc2ccccc2)c1 |  | inconclusive [activator, single point]
7 | Cc1ccc(N(CCC#N)C(=O)COC(=O)C2CCN(c3ccc(C(F)(F)F)cn3)CC2)cc1 |  | inconclusive [activator, partial curve, poor fit]
8 | O=C(O)CSc1nc2ccccc2nc1N1CCCCC1 | inactive: 1.41% | 
9 | CC(C)(C)c1ccc(CC(=O)N2CCC2(C)C(=O)Nc2ccc(F)cc2F)cc1 (centres undefined) |  | inconclusive [activator, single point]
10 | COc1ccc(C(C)NC(=S)NCc2ccc(F)cc2)cc1 (centres undefined) |  | active: 11.2 µM
11 | COc1ccc(NC(=O)c2oc3ccccc3c2NC(=O)Cc2ccc(F)cc2)c(OC)c1 | inactive: -6.69% | 
12 | O=C(Nc1ccccc1)N1CCCN(Cc2ccccc2F)C1 |  | inconclusive [activator, single point]
13 | COCCCNC(=S)NNC(=S)Nc1cccc(Cl)c1 |  | inconclusive [activator, partial curve, poor fit]
14 | Cc1ccc(NC(=O)CN2C(=O)C(C)(C)c3cc(S(=O)(=O)N4CCCCC4)ccc32)c(Br)c1 | inactive: 11.9% | 
15 | Cc1cccc(N2CCN(S(=O)(=O)c3c(C)nc4scc(C)n4c3=O)CC2C)c1 (centres undefined) |  | inconclusive [activator, single point]
16 | COCCCNC(=S)Nc1cc2oc3ccccc3c2cc1OC |  | inconclusive [activator, partial curve, poor fit]
17 | CCc1ccc(N=c2c([N+](=O)[O-])nn(-c3ccccc3)n2O)cc1 |  | inconclusive [activator, partial curve, poor fit]
18 | CC(O)(CS(=O)(=O)Cc1ccccc1)C(=O)Nc1ccc(C(F)(F)F)cc1 (centres undefined) |  | inconclusive [activator, single point]
19 | O=C(c1ccco1)c1coc2c1cc(O)c1ccccc12 |  | inconclusive [activator, partial curve, poor fit]
